For three substances, binding results are on record in paper PMC2939065.

Chains of the proteins cited; added tags and fusions are not shown. Lines headed by an entry give the natural chain unless they say otherwise; changes in a name come on top. A line that says so, or that is headed by a name, gives the form on record, which may keep a tag or linker. Residues count along the entry.
UniProt P00519, residues 61-121: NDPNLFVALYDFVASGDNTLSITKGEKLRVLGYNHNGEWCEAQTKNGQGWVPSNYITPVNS
C-terminal tail of PC-1 fused to poly-HIS tag (HIS-PC-1-CT) (P98161, residues 4133-4303): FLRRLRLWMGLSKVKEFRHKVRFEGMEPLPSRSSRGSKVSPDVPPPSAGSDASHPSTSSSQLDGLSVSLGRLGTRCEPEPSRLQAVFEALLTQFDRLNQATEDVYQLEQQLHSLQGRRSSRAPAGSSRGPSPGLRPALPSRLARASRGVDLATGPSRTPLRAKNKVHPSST
HIS-PC-1-CT with Proline 4270 (PP2) replaced with Leucine (P98161-3, form named): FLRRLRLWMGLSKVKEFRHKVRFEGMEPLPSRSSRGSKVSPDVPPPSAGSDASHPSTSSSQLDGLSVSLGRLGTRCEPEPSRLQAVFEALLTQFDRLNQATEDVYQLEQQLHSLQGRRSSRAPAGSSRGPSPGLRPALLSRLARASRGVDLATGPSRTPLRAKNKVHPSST
HIS-PC-1-CT with Proline 4172 (PP1) replaced with Leucine (P98161-3, form named): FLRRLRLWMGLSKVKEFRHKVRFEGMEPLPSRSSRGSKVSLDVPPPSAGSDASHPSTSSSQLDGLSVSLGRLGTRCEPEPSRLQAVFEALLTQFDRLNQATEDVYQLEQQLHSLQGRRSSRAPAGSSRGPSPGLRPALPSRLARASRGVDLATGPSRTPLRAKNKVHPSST

Results are given in words; binding and its absence hold for the method and conditions named. For some assays here: Binding seen in cells or lysates may run through a third protein. Some binding calls cover weakened binding; strength is not graded here. For some assays here: Sequences can lack the tags named with a protein.

The target in test [1] is SH3 domain of Abl fused to GST (pull-down) (UniProt P00519). The test is described as follows: pull-down; GST- and HIS-fused proteins expressed in E. coli BL21; cleared supernatants mixed 2 to 4 h at 4°C, then glutathione beads 2 to 4 h at 4°C; immunoblotting. A general note: A western blot detects proteins with antibodies after separation by electrophoresis.
In test [2] the target is T1, GST-fused SH3 domain of NPHP1 (GST-NPHP1-SH3) (human) (UniProt O15259).
T1 sequence: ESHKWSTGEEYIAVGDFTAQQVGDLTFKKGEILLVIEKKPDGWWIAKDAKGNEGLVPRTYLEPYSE
The description is as above.

The target in test [3] is T2, SH3 domain of NPHP1 fused to GST, spotted on the TranSignal SH3 Domain array (UniProt O15259).
T2 sequence: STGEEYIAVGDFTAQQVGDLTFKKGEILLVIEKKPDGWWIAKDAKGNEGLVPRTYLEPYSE
The test is described as follows: peptide or protein array; TranSignal SH3 Domain arrays (Panomics): GST-SH3 domains spotted in duplicate on membranes, incubated with bacterial extract of HIS-PC-1-CT, detected with anti-HIS antibody and chemiluminescence; spots quantified with ImageQuant; done twice; only the target purified.

In the case of “C-terminal tail of PC-1 fused to poly-HIS tag (HIS-PC-1-CT) (from UniProt P98161-3 4132-4302) (domain or fragment)”, the binding result in test [1] is listed as “no binding”; in test [2] it was “binds”; in test [3] it was “binds”.
Turning to “HIS-PC-1-CT with Proline 4270 (PP2) replaced with Leucine (from UniProt P98161-3 4132-4302) (domain or fragment)”, the binding result in test [2] is on record as “no binding”.
Turning to “HIS-PC-1-CT with Proline 4172 (PP1) replaced with Leucine (from UniProt P98161-3 4132-4302) (domain or fragment)”, the binding entry in test [2] is recorded as “binds”.
